PubChem BioAssay AID2060487 (Molecular Pharmacology Branch, DTP, NCI, 2025)
A number of entries come with more than one value. This list holds those alone. An entry can have further records. Values given together are repeats in other runs, samples, wells, individuals or studies. Counts like (3×) give the number of equal values in this list.

System: 997537-175-T-J1-PDC complex spheroid viability
Test: Anticancer human tumor 997537-175-T-J1-PDC patient-derived colon adenocarcinoma cell line growth inhibition [GQUAD]
Settings: for viability, T/C: stronger effect = lower value; for IC50: compound alone
Source text: DNA G-quadruplex Stabilizer Agents in Combinations in Complex Spheroids
A high-throughput screen of multi-cell type tumor spheroids was designed to identify active combinations of DNA G-quadruplex stabilizer agents and targeted small molecules. Complex spheroids include a stromal component modeled by human endothelial cells (HUVEC) and fibroblasts modeled by human mesenchymal stem cells (MSCs). The concentration ranges selected for each drug and investigational agent were based upon clinically achievable concentrations if the clinical Cmax of the agent was known.
Compounds. The drugs and investigational agents: pidnarulex (CX-5461; NSC782164), APTO-253 (NSC789042), BRACO-19 (NSC847499), peposertib (NSC802822), ceralasertib (NSC780249), elimusertib (NSC800525), camonsertib (NSC841442), AZD-1390 (NSC803789), olaparib (NSC753686), talazoparib (NSC767125), ART-558 (NSC835418), sotorasib (NSC818433), MRTX-1133 (NSC836407), SN-38 (NSC673596), topotecan (NSC609699), etoposide (NSC141540), doxorubicin (NSC123127), gemcitabine (NSC613327), 5-fluorouracil (NSC19893), paclitaxel (NSC125973), vemurafenib (NSC761431), panobinostat (NSC761190), R-306465 (JNJ-16241199; NSC773264), adavosertib (NSC754352), TP-3654 (NSC805149), carboplatin (NSC241240), KSQ-4279 (NSC840948), and staurosporine (NSC755774) were obtained from the National Cancer Institute (NCI) Developmental Therapeutics Program Chemical Repository (34). The FDA-approved anticancer drug set is available from the NCI Developmental Therapeutics Program. […] The stock solutions were prepared in dimethyl sulfoxide (DMSO, Sigma-Aldrich, St. Louis, MO, cat. D2650) at 800-fold the tested concentration and stored at -70 degrees C prior to their use. All drugs and investigational agents were tested over a range starting from a high concentration at or near the clinical Cmax and decreasing in half-log increments. If the clinical Cmax for an agent had not been determined, the highest concentration tested was 10 microM.
2.3 Cell Culture. All cells were maintained in an incubator at 37 degrees C and 5% CO2 with 95% humidity. The PDC lines were cultured according to standard operating procedures established by the NCI PDMR. All PDCs were thawed and cultured in Matrigel-coated flasks prepared with a working solution of 1X Ham's F-12 nutrient mix, without supplementation (Invitrogen, cat. 11765054), 100 U/mL penicillin-streptomycin (Invitrogen, cat. 15140122), and 2.5% Matrigel (Corning Inc., cat. 354248) for the first three passages. The 857933-349-R-J2-PDC line was cultured in 6C/Colon 1B media, which includes advanced DMEM/F-12 (Thermo Fisher Scientific, cat. 12634028), 10 mM HEPES (Thermo Fisher Scientific, cat. 15630080), 1X GlutaMAX supplement (Thermo Fisher Scientific, cat. 35050061), 0.1 mg/mL primocin (InvivoGen, cat. ant-pm-2), 10% defined fetal bovine serum, heat inactivated (HyClone Laboratories Inc., cat. SH30070.03HI), 50% L-WRN conditioned media (ATCC, cat. CRL-3276), 1.25 mM N-Acetyl-L-cysteine (Sigma-Aldrich, cat. A9165), 10 mM nicotinamide (Sigma-Aldrich, cat. N0636), 1X B-27 supplement (Thermo Fisher Scientific, cat. 17504044), 1X N-2 supplement (Thermo Fisher Scientific, cat. 17502048), 10 microM Y-27632 dihydrochloride (Tocris Bioscience, cat. 1254), and 50 ng/mL human EGF recombinant protein (Thermo Fisher Scientific, cat. PHG0311). The 485176-168-R4-J1-PDC line was cultured in Panc media, which includes all 6C/Colon 1B media components plus 100 ng/mL human FGF-10 (Thermo Fisher Scientific, cat. 100-26), 500 nM SB-431542 (Selleckchem, cat. S1067), and gastrin (Tocris, cat. 3006).
[…]
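Further: spheroids exposed to the agents for 7 days.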
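Wherever viability, T/C is given: 100% = DMSO vehicle control viability.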

Row | IC50 | Compound | viability, T/C (compound alone 0.0316 µM) | viability, T/C (compound alone 3.16 µM) | viability, T/C (compound alone 0.1 µM) | viability, T/C (compound alone 1 µM) | viability, T/C (compound alone 10 µM)
1 |  | Cc1cnc(CNC(=O)c2c(=O)c3ccc(N4CCCN(C)CC4)nc3n3c2sc2ccccc23)cn1 | 106, 89.2, 97.7, 96, 95.5, 93.3, 88.2, 96.2, 81.9, 90.4, 81, 79.7% | 111, 93.2, 99.8, 109, 106, 86.8, 83.1, 95.8, 105, 113, 101, 95.2% |  |  | 
2 | 1.73 µM, 57.6 nM, 1.86 µM | O=C(NO)c1cnc(N2CCN(S(=O)(=O)c3ccc4ccccc4c3)CC2)nc1 |  |  |  |  | 
3 |  | CN(C)c1ccc(Nc2c3ccc(NC(=O)CCN4CCCC4)cc3nc3cc(NC(=O)CCN4CCCC4)ccc23)cc1 | 103, 97.9, 93.2, 97.8, 89.5, 100, 107, 80.6, 96.9, 96.6, 89.3, 98.4% | 83.7, 99, 87.3, 78.1, 97.5, 88.1, 84.8, 88.4, 96.9, 91.3, 89.6, 104% | 99, 103, 101 (3×), 94.3, 97.8, 105, 74.1, 97.1, 106, 102% | 104 (2×), 100, 98.7, 94.5, 101, 79.7, 85.2, 105, 98.5, 107, 97.2% | 88.8, 98.3, 62.5, 80.7, 87.1, 85.1, 87.9, 85.2, 80.5, 76, 96.7, 94.3%
4 | < 31.6 nM, 3.23 µM, 72.1 nM | CC(=O)O[C@H]1C(=O)[C@@]2(C)[C@H]([C@H](OC(=O)c3ccccc3)[C@]3(O)C[C@H](OC(=O)[C@H](O)[C@@H](NC(=O)c4ccccc4)c4ccccc4)C(C)=C1C3(C)C)[C@]1(OC(C)=O)CO[C@@H]1C[C@@H]2O |  |  |  |  | 
5 |  | Cc1[nH]c2ccc(F)cc2c1-c1nc2c3cccnc3c3ncccc3c2[nH]1 | 73.5, 95.8, 98.7, 92, 104 (2×), 85.3, 100, 96.7, 96.1, 97.5, 98.5% |  |  | 81.9, 94.9, 95.8, 96.4, 107, 113, 97.4, 92.3, 88.4, 92.5, 102, 96.7% | 72.9, 87.9, 81.7, 65.8, 85.3, 85, 71.7, 68.8, 92.9, 83.3, 82.9, 80.3%
